44 compounds from article PMC4336329 (PLoS ONE, 2015) can be followed below.

Screen size: about 310,000 compounds; about 2,200 (0.71%) showed an effect of 50% or more. The effect is printed as a negative number. The list shows a part of the results.

Sequence of human ether-à-go-go-related gene (hERG) potassium channel (Q12809 whole entry, looked up): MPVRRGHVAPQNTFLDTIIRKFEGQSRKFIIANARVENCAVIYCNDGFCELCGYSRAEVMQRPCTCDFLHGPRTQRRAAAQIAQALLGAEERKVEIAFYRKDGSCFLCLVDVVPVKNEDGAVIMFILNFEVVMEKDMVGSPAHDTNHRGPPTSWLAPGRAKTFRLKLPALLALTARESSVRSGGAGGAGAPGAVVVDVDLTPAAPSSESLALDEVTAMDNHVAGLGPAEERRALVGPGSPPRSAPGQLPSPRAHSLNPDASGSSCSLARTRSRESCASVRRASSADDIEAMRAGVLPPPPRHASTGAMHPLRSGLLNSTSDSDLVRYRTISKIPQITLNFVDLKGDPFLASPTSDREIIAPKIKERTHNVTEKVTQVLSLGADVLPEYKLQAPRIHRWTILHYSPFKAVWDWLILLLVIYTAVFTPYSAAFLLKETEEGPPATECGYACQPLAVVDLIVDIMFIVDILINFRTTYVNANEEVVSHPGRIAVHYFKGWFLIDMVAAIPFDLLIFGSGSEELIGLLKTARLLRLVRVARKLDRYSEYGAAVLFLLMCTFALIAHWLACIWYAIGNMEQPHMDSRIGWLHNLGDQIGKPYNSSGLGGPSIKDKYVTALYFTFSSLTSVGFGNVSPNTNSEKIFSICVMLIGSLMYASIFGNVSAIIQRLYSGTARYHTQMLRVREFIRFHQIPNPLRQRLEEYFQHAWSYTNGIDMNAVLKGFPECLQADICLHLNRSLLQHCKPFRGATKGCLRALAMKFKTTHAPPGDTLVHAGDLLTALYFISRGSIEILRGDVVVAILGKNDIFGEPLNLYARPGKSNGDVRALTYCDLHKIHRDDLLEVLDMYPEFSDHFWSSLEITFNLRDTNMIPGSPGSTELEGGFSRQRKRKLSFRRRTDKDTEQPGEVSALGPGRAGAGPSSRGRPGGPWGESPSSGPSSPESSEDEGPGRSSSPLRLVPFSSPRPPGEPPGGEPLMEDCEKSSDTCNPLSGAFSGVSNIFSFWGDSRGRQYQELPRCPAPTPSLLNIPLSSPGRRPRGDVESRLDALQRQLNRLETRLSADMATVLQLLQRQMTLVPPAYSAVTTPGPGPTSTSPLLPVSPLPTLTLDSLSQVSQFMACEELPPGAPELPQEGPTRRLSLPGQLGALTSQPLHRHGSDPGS

This assay has as its target human ether-à-go-go-related gene (hERG) potassium channel (human, UniProt Q12809). The experiment in a line: primary screen, population patch clamp on CHO cells stably expressing hERG.
Take `Cc1cc(C(=O)COC(=O)[C@H](C)NC(=O)c2ccco2)c(C)n1Cc1ccco1`: the “hERG current change (%, negative = inhibition) at 1uM” value is recorded as 5.95%.

As to `O=C(NC1CCCCC1)c1ccccc1NC(=S)NC(=O)C1CCC1`, the “hERG current change (%, negative = inhibition) at 1uM” value came to 1.35%.

As to `O=c1oc2ccccc2c(Nc2ccc(Cl)cc2)c1[N+](=O)[O-]`, the “hERG current change (%, negative = inhibition) at 1uM” value was found to be 12.7%.

In the case of `CCOC(=O)C(=NCCCN1CCOCC1)NNc1cccc(C(F)(F)F)c1`, the “hERG current change (%, negative = inhibition) at 1uM” value worked out at 10.4%.

As for `Cc1cccc(-c2ocnc2C(=O)N2CCN(C(=O)c3cccs3)CC2)c1`, the “hERG current change (%, negative = inhibition) at 1uM” value came out at 14.8%.

Take `COC(=O)[C@H](Cc1c[nH]c2ccccc12)NC(=O)NCc1ccc(OC)cc1`: the “hERG current change (%, negative = inhibition) at 1uM” value worked out at 10.8%.

As to `O=C(Nc1ccc(N2CCN(C(=O)c3ccccc3)CC2)cc1)c1cccnc1`, the “hERG current change (%, negative = inhibition) at 1uM” value amounted to 11%.

As for `COc1ccc(OC)c2c(C)cc(N3CCN(C(=O)c4ccc(Cl)cc4)CC3)nc12`, the “hERG current change (%, negative = inhibition) at 1uM” value is 9.55%.

As to `S=c1[nH]nc(Cn2nnc3ccccc32)n1-c1ccccc1`, the “hERG current change (%, negative = inhibition) at 1uM” value was determined as 14.9%.

Turning to `NC(=O)c1ccccc1OCC(=O)O`, the “hERG current change (%, negative = inhibition) at 1uM” value is 3.73%.

Turning to `NC(=O)c1c(NC(=O)c2ccncc2)sc2c1CCCC2`, the “hERG current change (%, negative = inhibition) at 1uM” value turned out to be 10.8%.

As for `CC(c1ccco1)N(C(=O)c1ccccc1NS(=O)(=O)c1cc([N+](=O)[O-])ccc1Cl)c1ccccn1` (centres unmarked), the “hERG current change (%, negative = inhibition) at 1uM” value came to 18%.

`O=C(CCCc1c[nH]c2ccccc12)Nc1ccc2ccccc2c1`: the “hERG current change (%, negative = inhibition) at 1uM” value is on record as 12.9%.

Take `CCc1ccc(OCC(=O)NC(C)C)cc1`: the “hERG current change (%, negative = inhibition) at 1uM” value came to 8.07%.

For the compound `COc1cccc(-c2ccc(SCC(=O)NC3CCCC3)nn2)c1`, the “hERG current change (%, negative = inhibition) at 1uM” value is 9%.

With `COc1cc(=O)[nH]c(SCc2c(F)c(F)c(F)c(F)c2F)n1`, the “hERG current change (%, negative = inhibition) at 1uM” value was found to be 4.74%.

With `Cc1ccc(C(=O)O)cc1[N+](=O)[O-]`, the “hERG current change (%, negative = inhibition) at 1uM” value is listed as 13.3%.

Consider `Cc1cccc(Nc2nnc(SCC(=O)Nc3ccccc3[N+](=O)[O-])s2)c1`, for which the “hERG current change (%, negative = inhibition) at 1uM” value stood at 17.9%.

Regarding `CC(C)C(OC(=O)c1cccs1)C(=O)NCc1ccc(F)cc1` (centres unmarked), the “hERG current change (%, negative = inhibition) at 1uM” value is reported as 17%.

For the compound `CC(Oc1ccc(F)cc1)C(=O)Nc1cc(S(=O)(=O)N2CCCCC2)ccc1N1CCOCC1` (centres unmarked), the “hERG current change (%, negative = inhibition) at 1uM” value is listed as 14.1%.

As to `Nc1cc(S(=O)(=O)N2CCCCC2)ccc1N1CCOCC1`, the “hERG current change (%, negative = inhibition) at 1uM” value was 8.17%.

As to `CCCCOC(=O)CSC(=S)N(C)Cc1cccs1`, the “hERG current change (%, negative = inhibition) at 1uM” value was 11.5%.

On to `CCn1cc(CN2CCCC(C(=O)Nc3cccc(-c4cc5ccccc5[nH]4)c3)C2)cn1` (centres unmarked), for which the “hERG current change (%, negative = inhibition) at 1uM” value came out at 11.4%.

In the case of `COc1ccc(N2CCN(C(=O)c3cccnc3SCc3cccc(Br)c3)CC2)cc1`, the “hERG current change (%, negative = inhibition) at 1uM” value came to 4.84%.

Regarding `O=[N+]([O-])c1ccccc1S(=O)(=O)NCCc1ccncc1`, the “hERG current change (%, negative = inhibition) at 1uM” value turned out to be 21.6%.

Take `Cc1ccc(S(=O)(=O)n2nc(-c3ccc(Cl)cc3)nc2NCc2ccco2)cc1`: the “hERG current change (%, negative = inhibition) at 1uM” value was -0.4%.

For the compound `O=[N+]([O-])c1ccc(Nc2ccc(Cl)cc2)nc1`, the “hERG current change (%, negative = inhibition) at 1uM” value was 5.04%.

Regarding `O=c1cc(CSc2ccccn2)nc(N2CCN(c3ccccc3)CC2)[nH]1`, the “hERG current change (%, negative = inhibition) at 1uM” value is given as -18.8%.

Turning to `O=C(COC(=O)CNC(=O)c1ccccc1F)Nc1ccc2[nH]c(=O)[nH]c2c1`, the “hERG current change (%, negative = inhibition) at 1uM” value was 14.6%.

As for `CCc1c(C(=O)NN2C(=O)C3C4CCC(O4)C3C2=O)csc1C` (centres unmarked), the “hERG current change (%, negative = inhibition) at 1uM” value was determined as 15.4%.

On to `COc1ccc(-c2csc(NC(=O)CSc3ccc(Br)cc3)n2)c(OC)c1`, for which the “hERG current change (%, negative = inhibition) at 1uM” value was found to be 19.2%.

Turning to `CCCOc1ccccc1C1CC(=O)Nc2cc3c(cc21)OCCO3` (centres unmarked), the “hERG current change (%, negative = inhibition) at 1uM” value is 11%.

Take `CCn1c(Cc2ccc(OC)cc2)nnc1SCc1nc2ccccc2c(=O)[nH]1`: the “hERG current change (%, negative = inhibition) at 1uM” value is listed as 10.3%.

For `COc1ccc(CC(=O)OCC(=O)N2CCN(S(=O)(=O)c3ccc(C)cc3C)CC2)cc1`, the “hERG current change (%, negative = inhibition) at 1uM” value turned out to be 5.83%.

With `Cc1cc2nc(NCCCO)n(CC(=O)c3cc(C(C)(C)C)c(O)c(C(C)(C)C)c3)c2cc1C`, the “hERG current change (%, negative = inhibition) at 1uM” value turned out to be 7.22%.

For the compound `O=C(O)c1ccc(Nc2nc(-c3cccnc3)cs2)cc1O`, the “hERG current change (%, negative = inhibition) at 1uM” value was 6.41%.

In the case of `COc1ccccc1-[n+]1c(C)cc(/C=C2\Sc3ccccc3N2C)cc1C.[I-]`, the “hERG current change (%, negative = inhibition) at 1uM” value was -39.3%.

As to `CCCCC(CCC(=O)O)(C(=O)OCC)c1csc(Nc2ccc(C)cc2)n1` (centres unmarked), the “hERG current change (%, negative = inhibition) at 1uM” value is given as 8.18%.

For `CCN(C(C)=O)c1cccc2ccccc12`, the “hERG current change (%, negative = inhibition) at 1uM” value amounted to 7.75%.

For the compound `COc1cc(CNc2ccc3[nH]c(=O)[nH]c3c2)ccc1OCc1ccccc1C`, the “hERG current change (%, negative = inhibition) at 1uM” value is given as 12.8%.

As to `CCOC(=O)C1CCN(c2ccc([N+](=O)[O-])c(C(C)=O)c2)CC1`, the “hERG current change (%, negative = inhibition) at 1uM” value stood at 6.2%.

On to `COc1nc(-c2ccccc2)c2c(c1C#N)CC(C)(C)OC2`, for which the “hERG current change (%, negative = inhibition) at 1uM” value was determined as 18.3%.

For the compound `O=C(CSc1nc(O)cc(=O)n1-c1ccccc1)Nc1ccc(Br)cn1`, the “hERG current change (%, negative = inhibition) at 1uM” value was found to be 5.75%.

As to `CC(C)(C)Cc1nnc(NC(=O)Cc2ccc([N+](=O)[O-])cc2)s1`, the “hERG current change (%, negative = inhibition) at 1uM” value was -0.543%.
